This passage reports TΔS, ΔG and ΔH results from patent US20160108097A1 (UNITED STATES OF AMERICA AS REPRESENTED BY THE SECRETARY …, published 2016).

The assay has as its target HIV envelope glycoprotein gp120 (HIV). Briefly: ITC, 30 °C, lectin titrated into gp120. In general terms: In ITC the heat of successive injections is recorded.

B1: griffithsin (GRFT), native domain-swapped dimer (other)
chain: not shown
notes: Lectin; Recombinant, expressed in E. coli; also called dGRFT; native GRFT
As for B1, the TΔS is -19.2 kcal/mol, the ΔG is -11.2 kcal/mol and the ΔH is -30.4 kcal/mol.
